{"source": "the supplement of paper PMC3334620", "note": "Over roughly 33,000 sequences, “E-score (-0.5 to 0.5)” has its median near -0.013; the highest 2% begin near 0.3. Some of the results follow.", "data": [{"molecular_target": "T1, Msn1 (UniProt P22148)", "T1 sequence": "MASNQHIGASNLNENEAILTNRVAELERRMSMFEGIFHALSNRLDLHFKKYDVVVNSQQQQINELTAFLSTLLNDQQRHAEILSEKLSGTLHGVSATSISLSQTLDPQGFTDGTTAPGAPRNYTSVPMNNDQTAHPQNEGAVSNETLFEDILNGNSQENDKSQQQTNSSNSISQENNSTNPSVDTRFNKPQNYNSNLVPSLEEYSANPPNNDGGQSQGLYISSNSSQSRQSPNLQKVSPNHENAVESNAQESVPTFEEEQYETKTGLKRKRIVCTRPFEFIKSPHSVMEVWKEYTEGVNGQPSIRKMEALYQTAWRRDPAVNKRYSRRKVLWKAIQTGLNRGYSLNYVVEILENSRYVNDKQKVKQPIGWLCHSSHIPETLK", "assay": "PBM E-score (8-mer binding enrichment) (E-score (-0.5 to 0.5)); higher = stronger / more preferred TF binding; most listed sequences are background and not binding sites", "conditions": "protein concentration: 200 nM; construct: GST-full length", "experimental": "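Universal 'all 10-mer' protein binding microarrays (Agilent AMADID 015681) probed with GST-tagged S. cerevisiae TFs (full-length or DBD) made by in vitro transcription/translation (PURExpress), about 100-200 nM. Bound TF was detected with fluorescent anti-GST. Each ungapped 8-mer (which stands for itself and its reverse complement) is scored by the PBM enrichment score (E-score), a modified Wilcoxon-Mann-Whitney statistic from -0.5 to +0.5, computed with the Universal PBM Analysis Suite. Scale: above 0.35 generally sequence-specific binding.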", "values": [{"sequence": "CCCTAGGG", "PBM E-score": -0.216}, {"sequence": "CACCTCAA", "PBM E-score": -0.0743}, {"sequence": "TTCAGGAA", "PBM E-score": 0.0345}, {"sequence": "CTTGCCAA", "PBM E-score": -0.0408}, {"sequence": "AAAGACCA", "PBM E-score": -0.24}, {"sequence": "GGAACCTA", "PBM E-score": -0.0823}, {"sequence": "ACTGAATG", "PBM E-score": 0.037}, {"sequence": "CGCCTACG", "PBM E-score": -0.146}, {"sequence": "ATGAACGA", "PBM E-score": 0.0422}, {"sequence": "TGACCAAA", "PBM E-score": 0.109}, {"sequence": "AATAATCT", "PBM E-score": 0.0363}, {"sequence": "ATTAGGCG", "PBM E-score": 0.19}, {"sequence": "CCGTAAGG", "PBM E-score": -0.268}, {"sequence": "GTTAGATA", "PBM E-score": 0.0727}, {"sequence": "CACATGCC", "PBM E-score": 0.0209}, {"sequence": "CTTGGGGA", "PBM E-score": 0.168}, {"sequence": "ACTCGCAT", "PBM E-score": 0.11}, {"sequence": "AGAGGTGG", "PBM E-score": 0.0356}, {"sequence": "AGTAAAGG", "PBM E-score": -0.0129}, {"sequence": "CACGCGAG", "PBM E-score": 0.197}, {"sequence": "GAGCAGAC", "PBM E-score": -0.0645}, {"sequence": "TGACAACA", "PBM E-score": 0.212}, {"sequence": "ACTAGGCC", "PBM E-score": -0.197}, {"sequence": "ATTATTAC", "PBM E-score": -0.00907}, {"sequence": "CATGAATG", "PBM E-score": 0.0844}, {"sequence": "CCTAGGGC", "PBM E-score": -0.059}, {"sequence": "ATGTGCAG", "PBM E-score": -0.0809}, {"sequence": "CCTTCTAA", "PBM E-score": -0.143}, {"sequence": "ATATCATG", "PBM E-score": -0.117}, {"sequence": "CGAATACA", "PBM E-score": -0.00174}, {"sequence": "ATGCAGAA", "PBM E-score": 0.0315}, {"sequence": "GCAGTAAA", "PBM E-score": -0.0255}, {"sequence": "AGCTTAAC", "PBM E-score": -0.0666}, {"sequence": "AGTTTTCC", "PBM E-score": -0.00968}, {"sequence": "GCTGGCTA", "PBM E-score": -0.208}, {"sequence": "AAAACACG", "PBM E-score": 0.0849}, {"sequence": "ATATGTAG", "PBM E-score": 0.135}, {"sequence": "CCAGCGGG", "PBM E-score": -0.0833}, {"sequence": "GTAACCAC", "PBM E-score": -0.273}, {"sequence": "TGCGGCAA", "PBM E-score": -0.134}, {"sequence": "CTTCCTTC", "PBM E-score": -0.35}, {"sequence": "CATACTTC", "PBM E-score": -0.117}, {"sequence": "AGAAAGAT", "PBM E-score": 0.136}, {"sequence": "CTATGCTC", "PBM E-score": -0.156}, {"sequence": "AAACGCTG", "PBM E-score": -0.0686}, {"sequence": "ATTAGGGA", "PBM E-score": 0.0137}, {"sequence": "ACGGTAGT", "PBM E-score": 0.0315}, {"sequence": "AAGGTGTC", "PBM E-score": 0.09}, {"sequence": "GCCCACAC", "PBM E-score": -0.213}, {"sequence": "AATAGGGG", "PBM E-score": -0.0878}, {"sequence": "CGCAGGAG", "PBM E-score": -0.233}, {"sequence": "AGGGTACA", "PBM E-score": 0.0979}, {"sequence": "ACAGGGTC", "PBM E-score": -0.163}, {"sequence": "ATCTTGAA", "PBM E-score": 0.102}, {"sequence": "GTTTATGA", "PBM E-score": 0.159}, {"sequence": "CGTCTTAA", "PBM E-score": 0.0585}, {"sequence": "CTCTGGCA", "PBM E-score": -0.149}, {"sequence": "CTTTTACC", "PBM E-score": 0.149}, {"sequence": "TAAGATAA", "PBM E-score": 0.0274}, {"sequence": "CTGTTGTC", "PBM E-score": 0.247}, {"sequence": "AATCAGCC", "PBM E-score": -0.192}, {"sequence": "TTCTTCAA", "PBM E-score": 0.0945}, {"sequence": "CAGTGAGA", "PBM E-score": 0.0144}, {"sequence": "AACGTTGT", "PBM E-score": 0.121}, {"sequence": "CGAAGACG", "PBM E-score": -0.0884}, {"sequence": "TCCAAACA", "PBM E-score": 0.0529}, {"sequence": "CGCTTTTC", "PBM E-score": -0.175}, {"sequence": "GACAAGAC", "PBM E-score": 0.311}, {"sequence": "CGATGTGA", "PBM E-score": -0.0848}, {"sequence": "ATACCTGG", "PBM E-score": -0.0908}, {"sequence": "AGCTTCTC", "PBM E-score": -0.11}, {"sequence": "GTCACGAA", "PBM E-score": 0.126}, {"sequence": "CGGACAAA", "PBM E-score": 0.484}, {"sequence": "GGTGGCGA", "PBM E-score": -0.24}, {"sequence": "CACATACC", "PBM E-score": 0.0401}, {"sequence": "GAACTTAC", "PBM E-score": 0.0973}, {"sequence": "AGTCGGTC", "PBM E-score": -0.175}, {"sequence": "CGGTCTTA", "PBM E-score": -0.0302}, {"sequence": "AATGTTAC", "PBM E-score": -0.0136}, {"sequence": "CGGAACAA", "PBM E-score": 0.268}, {"sequence": "AAAACGGC", "PBM E-score": 0.0785}, {"sequence": "AGCAAAAT", "PBM E-score": 0.174}, {"sequence": "CGTGGGCC", "PBM E-score": -0.061}, {"sequence": "CTGGACGA", "PBM E-score": -0.205}, {"sequence": "CCGTGGAA", "PBM E-score": -0.0597}, {"sequence": "CCTGGCAG", "PBM E-score": -0.0475}]}]}
